# Some of the results follow. At the low end of the ranking, values are background and their order means little.
# Molecular target: T1, GST-Rok-C97-191 (UniProt O34857)
# T1 sequence: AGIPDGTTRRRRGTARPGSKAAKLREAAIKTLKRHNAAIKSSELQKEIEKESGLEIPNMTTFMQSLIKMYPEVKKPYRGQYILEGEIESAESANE
# Assay: protein binding microarray;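 further: rank score from −0.5 (least bound) to 0.5 (best bound)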
# Conditions: Rok is a gene silencer of Bacillus subtilis; high values mean tight binding; most listed sequences are background and not binding sites; double strand, one strand shown
row,Sequence,binding signal [E-score]
1,CTATGTTC,-0.118
2,ACTCTCCC,-0.157
3,GTACCATA,0.362
4,AACTAATT,0.344
5,GATATGTA,0.303
6,CATGACAC,-0.18
7,ACCGGAGC,-0.0944
8,CCACCGCC,-0.169
9,GATACTGA,0.0663
10,CGCGACGA,-0.141
11,CTAACATA,0.129
12,GGAATGAA,-0.129
13,GGAGTTCA,-0.0356
14,AACCGCGC,-0.221
15,TCTCAGCA,-0.0432
16,AGAACACA,0.145
17,AATTCGCT,-0.0172
18,TCCGCTCA,-0.118
19,ATCCCCAG,-0.295
20,CTTTGCGC,-0.101
21,GCGCTTAA,0.0136
22,CAAGACAA,-0.0945
23,TAGAATCA,0.222
24,CTGGGATC,-0.14
25,CACAGGTG,-0.163

row,Sequence,binding signal [E-score]
1,ACTCCAAG,-0.201
2,GCAGGGGA,-0.184
3,TAGGCATA,0.0965
4,GTTCACCA,-0.0973
5,TCACGCCA,-0.0789
6,GAGAGGGA,-0.219
7,AGTTAAGG,0.0755
8,AATGTTCA,0.254
9,GCTCCCAA,-0.262
10,CCACTGGC,-0.234
11,TCTTTCCA,-0.0693
12,CTCCACCA,-0.0804
13,AGCCGCAA,-0.144
14,GACGGAAA,0.0891
15,CTCGGCTC,-0.176
16,AATCACCT,0.0509
17,AGTCGTTG,-0.237
18,GAACACGC,-0.0296
19,GGGAGTAA,-0.0957
20,CAAGCGCA,-0.0394
21,ATCAGAGG,0.0181
22,ATCGTCGC,-0.0659
23,TCTGGACA,-0.0595
24,ATTATTGG,0.106
25,AAGACCTT,-0.146

row,Sequence,binding signal [E-score]
1,TCCATGGA,-0.104
2,CTAACGGC,-0.248
3,GGCCGACC,-0.362
4,CCACCACG,-0.193
5,GCTTTAGA,-0.024
6,GGGTACAA,0.0205
7,CGATCAGA,-0.145
8,CATAAGAC,0.00454
9,AGCTTACG,-0.0618
10,AAAGCTTG,-0.0903
11,CTAGTTAC,0.38
12,TTAAGAAA,0.148
13,ATCAGCTC,-0.0803
14,GATCGATC,0.163
15,CAAGGGTC,-0.151
16,AATTCAGG,-0.0589
17,AGTGAGGC,-0.0807
18,GAATATAC,0.293
19,AGCTTATG,0.00766
20,CACCACTA,0.116
21,AAAAGTGG,0.0303
22,ACGAGTGA,-0.0182
23,AGATAGCG,0.31
24,GGTAGACA,0.0947
25,AACCCAGC,-0.114

row,Sequence,binding signal [E-score]
1,AGTCCCTC,-0.267
2,CGGGGCAA,-0.163
3,AACAAACT,0.013
4,CATTCAAG,0.0359
5,AAACGATA,0.0851
6,GTGAGTGA,-0.0284
7,GCGGGCAA,-0.136
8,TCCTAGCA,0.0436
9,GAACTAAA,0.21
10,CTCATCAG,0.0759
11,AACGCGCG,-0.0781
12,CGAGACCG,-0.279
13,CGCAAGCA,-0.132
14,CCCTAAAA,-0.0146
15,ACCGACGC,-0.0844
16,GATAGCCC,-0.244
17,CAATCGTG,-0.0616
18,GAAGCTTA,-0.0189
19,ATAGACGG,-0.156
20,CAGAAACG,-0.0943
21,CGGGTAAA,-0.033
22,AAACTGCC,-0.0722
23,CATATACG,0.21
24,AGATCCTG,0.0839
25,AAGACAGA,-0.0822

row,Sequence,binding signal [E-score]
1,CCCGACAG,-0.223
2,TGGGAAAA,-0.0131
3,ACTCCTAT,0.221
4,CCGACTCG,-0.163
5,CAATACCC,0.0576
6,CTCAACGA,-0.0623
7,CGCACACG,-0.218
8,CTATCTTA,0.227
9,ACGCTAAA,-0.0082
10,CGTCAAGA,-0.201
11,CATTCTCA,0.029
12,CGAGGACC,-0.0774
13,GAGGAACA,-0.114
14,AAGCCTTG,-0.29
15,GAAGACAC,-0.085
16,CAGGAACA,-0.101
17,ATATTGTC,0.221
18,ACCAACCA,-0.193
19,ATGGAAAT,0.0207
20,AGCGCTGC,-0.144
21,ACGTTGCT,-0.0137
22,CCTATAAA,0.301
23,CTCCCTAC,-0.213
24,CGACAAAA,0.068
25,CATACCCA,0.194

row,Sequence,binding signal [E-score]
1,GAAGCAAA,0.014
2,GAAAATAA,0.156
3,AAAAACAC,0.14
4,ATACGAGG,-0.157
5,AAAGCTAC,0.327
6,CCAAGTTA,0.115
7,ACCAAGCA,0.0688
8,GAGCCCTA,-0.171
9,AAGTCCCT,-0.125
10,CTCCTTAA,-0.0937
11,GACACGGA,-0.18
12,TACAAGTA,0.272
13,TCACTAAA,0.164
14,CCGCGCCA,-0.208
15,ACCGCTAC,0.158
16,CTGATGTA,0.257
17,TAAAACCA,-0.0458
18,CCGCTTAA,0.0128
19,AATATGAA,0.166
20,AGAGTACG,0.0174
21,CCTATTAA,0.0709
22,CGTAGATC,0.225
23,AGCAAGAG,0.0808
24,GCATAAAC,0.0914
25,AGTAAATA,0.425

row,Sequence,binding signal [E-score]
1,CGTGCTAA,-0.00287
2,AAGCGTCG,-0.175
3,AGGAAGTC,-0.28
4,AGGGGCAC,-0.363
5,AGTGATCA,0.0262
6,GATTGAAA,0.0414
7,ACGATTGG,-0.0603
8,CCTGATCC,-0.288
9,TTAGCTAA,0.263
10,GATGGGTA,-0.0187
11,ATTGATCA,0.0331
12,CTAGGCAA,0.0919
13,ACCCTCCC,-0.0987
14,CCTCAGTA,-0.0305
15,GGCACGCC,-0.295
16,CACAAGAA,-0.0545
17,AGTGGTAT,0.313
18,AATGAATC,-0.0762
19,AGGACGAA,-0.246
20,AGCGACTA,-0.0392
21,AATTAGGT,0.273
22,CTTACGCC,-0.00614
23,GGATAGAC,-0.182
24,CACAACCA,-0.0806
25,CCCAATCG,-0.233

row,Sequence,binding signal [E-score]
1,GAGAGACA,-0.104
2,CGACTAAA,0.00284
3,AATGCGGA,-0.107
4,CCCCTGAA,-0.248
5,CTTGGATC,-0.153
6,AACTCCAG,0.0734
7,GCCCTGTA,-0.192
8,ATAGTTTC,0.292
9,CTGTTAAG,-0.000113
10,CTTCGTAA,0.000147
11,CACGTCTC,-0.00409
12,AATTCTGA,0.173
13,CCTACTCA,0.0753
14,GCTTTACA,-0.0184
15,CACCTAAC,-0.0684
16,CAGACGGG,-0.296
17,TAAGTATA,0.238
18,ACAGCCGC,-0.187
19,ACGTATGC,0.079
20,AAGAATTC,0.105
21,CTGGCTGA,-0.0706
22,ACGAGCAA,-0.0517
23,CGCCCGCC,-0.338
24,GCAAAAGA,-0.137
25,ACGGGAAG,-0.0482

row,Sequence,binding signal [E-score]
1,AAGCTGCC,-0.171
2,ATATGGCA,0.0279
3,GACATGTC,-0.0877
4,CATCCAGC,-0.14
5,CGTATTCA,0.00996
6,CCGGACCG,-0.0456
7,CGTGGACC,-0.328
8,ATCTCGAC,-0.00603
9,CGACTACA,0.0949
10,AACCCGCC,-0.15
11,ACCGCGGT,-0.187
12,GGGCTTAC,-0.146
13,GGTGTCTA,-0.262
14,AAGCTACA,0.255
15,GCGCATTA,0.0826
16,ATTCTGCC,-0.126
17,CCAATCGC,-0.104
18,AAGCGTAC,0.0318
19,AATAACCG,0.184
20,GAGAGCCA,-0.218
21,CAGCGATG,-0.0412
22,CACATGCC,-0.135
23,ACTCTAGG,-0.0737
24,AGCAAACT,0.193
25,AATAGTGT,0.242

row,Sequence,binding signal [E-score]
1,AACTTGTC,0.0565
2,ATGTTTTG,0.0475
3,GGATGTAA,0.129
4,CTCTCTAA,-0.0469
5,AGGGCGTC,-0.365
6,AACACGGA,0.131
7,CATGCTCA,0.064
8,CGACGGGC,-0.226
9,GATTTCTA,0.357
10,CAGCATTC,0.027
11,CGAGACGC,-0.242
12,CCGCTCTA,-0.175
13,AAATAATT,0.246
14,CAAGTTGA,-0.0731
15,ATAGGTGG,0.0357
16,CCAGCGTC,-0.163
17,ATAATGAA,0.189
18,CTTTTCCC,-0.195
19,AAACCTGC,-0.127
20,ACACCTTG,-0.0452
21,CAGCACGG,-0.0741
22,TGTATCAA,0.167
23,CCTCCGAA,-0.171
24,ATCGGGTG,0.0181
25,CAGTATCC,-0.121

row,Sequence,binding signal [E-score]
1,AGCAGAAC,-0.0989
2,AGCAAGCT,-0.0272
3,ATAACACA,0.213
4,AGTCGAGG,-0.0751
5,AGGAGCAA,-0.154
6,GACGCTAA,-0.00173
7,CGTTGGCC,-0.257
8,CCCGTTAA,-0.0438
9,GACGGTTA,-0.0862
10,CTATCCTC,-0.0343
11,AAGGATAG,0.108
12,CCGAGGGC,-0.27
13,AGCCGGGG,-0.111
14,AGCCTGTC,-0.234
15,ACCATCAG,-0.116
16,GAACAGCC,-0.208
17,AAGTAGAA,0.363
18,GAGAGATA,-0.0249
19,CGCTCATA,0.0193
20,AATCTACT,0.43
21,GTTATCTA,0.318
22,CATTTTGG,-0.0899
23,CCCGTATA,0.161
24,CATTTTCC,0.0179
25,CAATGTAA,-0.0287

row,Sequence,binding signal [E-score]
1,CGAGGTCA,-0.221
2,CATTCCCC,-0.302
3,TAAACGCA,-0.0161
4,CTAAAAGA,0.221
5,CAAAAATC,-0.0624
6,GCAGACGA,-0.272
7,AGGTCCCG,-0.133
8,AGGCTAAC,-0.0834
9,AATAGCGT,0.0584
10,CGACACCA,-0.0352
11,CATTGTAC,0.109
12,AGTTTTCC,0.145
13,AAAAGTAA,0.0523
14,ACAAATTA,0.24
15,AGTGCATA,0.0367
16,CTCTGGTC,-0.0708
17,ACGACTTC,0.0725
18,AATACTGA,0.0851
19,CCGGATTA,0.117
20,CTTCAGAA,-0.00738
21,CTAAAAAA,0.168
22,GTGGCGCA,-0.223
23,ACCATCTG,0.154
24,ACCATAAC,0.0976
25,GCGTGCCC,-0.26

row,Sequence,binding signal [E-score]
1,GTACCCAA,-0.0765
2,ATATTATG,0.0424
3,GACGCCAC,-0.229
4,CGATTTAG,0.147
5,CTCGCCAG,-0.104
6,ATGACGCA,-0.146
7,ACAAACGC,-0.183
8,CAGCCTCA,-0.127
9,AACGGCGT,-0.00296
10,ATCTTGTA,0.261
11,ATGTATAG,0.264
12,ACTTCATG,0.025
13,ACGACGTC,-0.0121
14,CCACTAGA,0.204
15,GAATCGTA,0.179
16,CCCGTTCC,-0.0375
17,CCCTCTAC,-0.295
18,ACCATGTC,-0.156
19,GAACCTGC,-0.221
20,ATAGTAAT,0.396
21,GGCACTAA,-0.0784
22,GGCGATAA,0.0821
23,TACCTGCA,0.193
24,AAAGCCTG,-0.0554
25,AGGGCGTA,-0.357

row,Sequence,binding signal [E-score]
1,GACAACCA,-0.0731
2,GTCCAATA,0.0328
3,GAGTTACC,0.183
4,AACGGGTC,0.00135
5,AACCCAAC,0.0417
6,ACATTACG,0.154
7,AACGGTGG,-0.0631
8,TATCGAGA,0.0925
9,CGGACTAG,-0.0749
10,TCGGTACA,0.0633
11,TATTGTGA,0.122
12,GTGGGTAA,0.0434
13,ACCGAGAG,0.118
14,ACTACCGC,0.232
15,ATCACCCA,-0.153
16,CCACGACC,-0.202
17,TAGGTAGA,0.386
18,CGGCGCAG,-0.159
19,CCACGCGA,-0.135
